Results as given in the RNAGym collection of RNA variant scans (doi:10.1093/nar/gkz1192).
Read counts are not given, so values of variants with three or more changes are uncertain.

B1: CPEB3 Ribozyme (parent)
chain: UAACAGGGGGCCACAGCAGAAGCGUUCACGUCGCAGCCCCUGUCAGAUUCUGGUGAAUCUGCGAAUUCUGCUGUAUAUCUC

Variants of: B1
Test: self-cleavage, relative activity (ratio to wild type); higher = more cleavage; in vitro, sequencing
Summary of the method: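 For each CPEB3 ribozyme variant, relative activity is its cleaved/total read fraction divided by the unmutated ribozyme's. Barcoded error-prone PCR libraries were transcribed by T7 RNA polymerase (5 hours, 37°C) and held in DNase I for 15 min before an EDTA stop, with cleavage occurring throughout. Template-switching reverse transcription and Illumina sequencing were used to read the RNAs. A 5-read minimum applied, and results are the mean of three batches.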

Row | Variant | self-cleavage
1 | UAACAGGGGGCCACAGCAGAAGCGUUCACGCCGCAGCCCCUGUCAGAUUCAGGUGAAUCUGCGAAUUCUGCUGAAUAUCCC [U31C U51A U74A U80C] | 1.21
2 | UAACAGGGGGCCACAGCAGAAGCGUUCACGGCGCAGCCCCUGUCGGAUUCUGGUGAAUCUGCGGAUCCUGCUGUAUAUCUC [U31G A45G A64G U67C] | 0.18
3 | UAACAGGGGGCCACAGCAGAAGCGUUCACGCCGCAGCCCCUGUCAGAUCCUGCUGAAUCUGCGAAUUCUGCUGUAUAUCUC [U31C U49C G53C] | 0.27
4 | UAACAGGGGGCCACAGCAGAAGCGUUCACGUAGCAGCGCCUGUCAGAUUCUGGUGAAUCUGCGAAUUCUGCUGUAUACCUC [C32A C38G U78C] | 0.07
5 | UAACAGGGGGCCACAGCAGAAGCGUUCACGUUGGAGCCCCUGUCAGAUUCUGGUGAAUCUGUGAAUUCUGCUGUAUAUCUC [C32U C34G C62U] | 0.11
6 | UAACAGGGGGCCACAGCAGAAGCGUUCACGUAGCAGCCCCUGUCAGAUUCCGGUGAAUCUGCGAAUUCUGCUGUAUACCUC [C32A U51C U78C] | 0.13
7 | UAACAGGGGGCCACAGCAGAAGCGUUCACGGUGCAGCCCCCGUUAGAUUCUGGUGAAUCUGCGAAUUCUGCUGUAUAUCUC [U31G C32U U41C C44U] | 0.12
8 | UAACAGGGGGCCACAGCAGAAGCGUUCACGCCGCAGCCCCUGUCAGAUUCUGGUGAAUCAGCGAAUCCUGCUGUAAUUCUC [U31C U60A U67C U76A A77U] | 0.11
9 | UAACAGGGGGCCACAGCAGAAGCGUUCACGCCGCAGCCCCUGUCAGAUUCUGGUGAACCUGCGUAUUCUGCUGCAUAUCUC [U31C U58C A64U U74C] | 0.11
10 | UAACAGGGGGCCACAGCAGAAGCGUUCACGGCGCAGCCCCUGUCAGAUUCUGGUGAAUCCGCGGAUUCCGCUGUAUAACUC [U31G U60C A64G U69C U78A] | 0.12
11 | UAACAGGGGGCCACAGCAGAAGCGUUCACGGCGCAGCCCCUGUCAGAUUCUGGUGAGUCUGCGAAUUCUGCCGUAUAUCUC [U31G A57G U72C] | 1
12 | UAACAGGGGGCCACAGCAGAAGCGUUCACGGCGCAGCCCCUGUCAGAUUCUGGUGAAUCUGCGAACUUCGCUGUAUAUCCC [U31G U66C C68U U69C U80C] | 0.09
13 | UAACAGGGGGCCACAGCAGAAGCGUUCACGCCGCAGCCCCUGUCAGAUUCCGGUGGAUCUGCAAAUUCCGCUGUACAUCUC [U31C U51C A56G G63A U69C U76C] | 0.29
14 | UAACAGGGGGCCACAGCAGAAGCGUUCACGGCGCGGCCCCUGCCAGAUUCUGGCGAAUCCGCGAAUUCUGCUGUAUAUCUC [U31G A35G U43C U54C U60C] | 0
15 | UAACAGGGGGCCACAGCAGAAGCGUUCACGCCGCAGCCCCUGUCAGAUUCUGGCGAAUCUGCGAAUUCUGCUGUACUUCUC [U31C U54C U76C A77U] | 1.04
16 | UAACAGGGGGCCACAGCAGAAGCGUUCACGUUGCAGCCUCUGUCAGAUCCUGGUGAAUCUGCGAAUUCCGCUGUAUAUCUC [C32U C39U U49C U69C] | 0.54
17 | UAACAGGGGGCCACAGCAGAAGCGUUCACGGCGCCGCCCCUGUCUGAUCCUGGUGAAUCUGCGAAUCCUGUUGUAUAUCUC [U31G A35C A45U U49C U67C C71U] | 0.05

Row | Variant | self-cleavage
18 | UAACAGGGGGCCACAGCAGAAGCGUUCACGGCGCAGCCCCUGUCAGGUUCUGAUGAAUCUGCGAAUUCUGCUGUAUAUCUC [U31G A47G G53A] | 0.71
19 | UAACAGGGGGCCACAGCAGAAGCGUUCACGGCGCAGCCCCUGUCAGAUUCUGGUGAAUCUGCGAUUUCCGCAGUAUAUCUC [U31G A65U U69C U72A] | 0.12
20 | UAACAGGGGGCCACAGCAGAAGCGUUCACGCCGCAGCCCCUGUCAGAUUCUGGUGAAUCUGCGAAUUCUGCAUUAUAUCUC [U31C U72A G73U] | 1.11
21 | UAACAGGGGGCCACAGCAGAAGCGUUCACGCCGCAGCCCCUGUCAGAUUCCGGCGAAUCUGCGAAUUCGGCUGUAUAUCUC [U31C U51C U54C U69G] | 0.31
22 | UAACAGGGGGCCACAGCAGAAGCGUUCACGCCGCAGCCCCUGGCAGUUUCUGGCGUAUCUGCGAAUUCUGCUGUAUAUCUC [U31C U43G A47U U54C A56U] | 0
23 | UAACAGGGGGCCACAGCAGAAGCGUUCACGUUGCUGCCCCUGUCAGAUUCUGGUGGAUCCGCGAAUUCUGCAGUAUAUCUC [C32U A35U A56G U60C U72A] | 0.07
24 | UAACAGGGGGCCACAGCAGAAGCGUUCACGGCGCGGCCCCCGUCAGAUUCUGGUGAAUCUGCGAAUCCUGCUGUAUAUCUC [U31G A35G U41C U67C] | 0.19
25 | UAACAGGGGGCCACAGCAGAAGCGUUCACGGCGCAGCCCCUGUCAGAUUCUGGUGAAUCUGCGGCUUCUGCUGUAUAUCUC [U31G A64G A65C] | 0.23
26 | UAACAGGGGGCCACAGCAGAAGCGUUCACGGCGCUGCCCCUGUUAGAUUCUGGUGAAUCUGCGAAUUCUGCCGUCUAUCUC [U31G A35U C44U U72C A75C] | 0.15
27 | UAACAGGGGGCCACAGCAGAAGCGUUCACGGCGCAGCCCCUGUCAGAUUCUGGUGAAUCUGCGAACCCUGCUGUAUAUCUC [U31G U66C U67C] | 0.18
28 | UAACAGGGGGCCACAGCAGAAGCGUUCACGUAGCAGCCCCUGUUAGAUUCUGGUGAAUCUGCGAAUCCUGCUGUAUAUCUC [C32A C44U U67C] | 0.11
29 | UAACAGGGGGCCACAGCAGAAGCGUUCACGUGGCAACCCCUGUCGGACUCUGGUGAAUCUGCGAAUUCAGCUGUAUAUCUC [C32G G36A A45G U48C U69A] | 0.09
30 | UAACAGGGGGCCACAGCAGAAGCGUUCACGCCGCAGCCCCUGUCAGAUUCUGGUGAAUCUGCGAAUUCCGCUGUAUACCUC [U31C U69C U78C] | 0.36
31 | UAACAGGGGGCCACAGCAGAAGCGUUCACGGCGCAGCCCCUGUCAGAUUCUGGUGAAUCUGCGAAUUCCGCUGUAUACCUC [U31G U69C U78C] | 0.23
32 | UAACAGGGGGCCACAGCAGAAGCGUUCACGCCGCAGCCCCUGUCAGAUACUGGUGAAUCUGCGAAUUCUGCUGUUUAUCUC [U31C U49A A75U] | 0.55
33 | UAACAGGGGGCCACAGCAGAAGCGUUCACGCCGCAGCCCCUGUCAGAUUCUGGAGAAUCUGCGAACUCUGCUGUAUAUCUC [U31C U54A U66C] | 0.44
34 | UAACAGGGGGCCACAGCAGAAGCGUUCACGCCGCAGCCCCUGUCAGAUUCUGGUGAAUCAGCGAGUUCUGCUGUAUAUCUC [U31C U60A A65G] | 0.17
